# Measurements from the supplement of paper PMC9174493.
# Some of the results follow. Single values of this set are uncertain. Values with irradiation are relative to irradiated vehicle.
# Assays:
# A549-Dual [1] = test: NF-kB reporter (SEAP) activity, viability-corrected, relative to vehicle (fold change vs vehicle); higher = more activation of STING-IRF / NF-kB immune response reporter; conditions: 10 µM
# A549-Dual [2] = test: ISRE reporter (Lucia luciferase) activity, viability-corrected, relative to vehicle (fold change vs vehicle); higher = more activation of STING-IRF / NF-kB immune response reporter; conditions: 10 µM
# 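Wherever NF-kB reporter (SEAP) activity, viability-corrected, relative to vehicle is given: viability correction based on the alamar blue assay, with concentrations leaving 10% survival or less dropped.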
Structure (SMILES),NF-kB reporter (A549-Dual [1]; irradiation: 8 Gy/4 fr),NF-kB reporter (A549-Dual [1]; irradiation: none),ISRE reporter (A549-Dual [2]; irradiation: 8 Gy/4 fr),ISRE reporter (A549-Dual [2]; irradiation: none)
COc1nc(C)nc(Cl)c1NC1=NCCN1 [Moxonidine],0.744,1.03,0.714,0.841
CCCc1cc(=O)[nH]c(=S)[nH]1 [Propylthiouracil],0.494,1.39,0.0776,0.458
Cl.O=c1n(CCCN2CCN(c3cccc(Cl)c3)CC2)nc2ccccn12 [Trazodone HCl],0.586,0.957,0.475,0.608
CC1OC(OC2C(CO)OC(OC3C(CO)OC(O)C(O)C3O)C(O)C2O)C(O)C(O)C1NC1C=C(CO)C(O)C(O)C1O (stereo not drawn) [Acarbose],0.94,0.96,0.947,0.895
O=C1CCc2ccccc21 [1-Indanone],0.733,0.839,0.717,0.704
Oc1ccc(C2COc3cc(O)ccc3C2)cc1 (stereo not drawn) [Equol],0.718,0.762,0.801,0.77
C=C1/C(=C\C=C2/CCC[C@]3(C)[C@@H]([C@H](C)CCCC(C)C)CC[C@@H]23)C[C@@H](O)C[C@@H]1O [Alfacalcidol],0.41,0.767,0.273,0.574
CCNC1CC(N)C(OC2OC(CN)=CCC2N)C(O)C1OC1OCC(C)(O)C(NC)C1O.CCNC1CC(N)C(OC2OC(CN)=CCC2N)C(O)C1OC1OCC(C)(O)C(NC)C1O.O=S(=O)(O)O.O=S(=O)(O)O.O=S(=O)(O)O.O=S(=O)(O)O.O=S(=O)(O)O (stereo not drawn) [Netilmicin Sulfate],1.01,0.982,0.747,0.986
COCC1CC(c2ncc(-c3ccc4c(c3)COc3cc5c(ccc6[nH]c(C7CCC(C)N7C(=O)C(NC(=O)OC)C(C)C)nc65)cc3-4)[nH]2)N(C(=O)C(NC(=O)OC)c2ccccc2)C1 (stereo not drawn) [Velpatasvir],0.812,0.982,0.869,1.27
CCOC(=O)c1c(CSc2ccccc2)n(C)c2cc(Br)c(O)c(CN(C)C)c12.Cl [Arbidol HCl],0.857,0.935,0.91,0.918
CC(C)(O/N=C(\C(=O)NC1C(=O)N2C(C(=O)[O-])=C(C[n+]3ccccc3)CSC12)c1csc(N)n1)C(=O)O (stereo not drawn) [Ceftazidime],0.738,0.882,0.78,0.837
C/C(=C\C(=O)OCCCCCCCCC(=O)O)CC1OCC(CC2OC2C(C)C(C)O)C(O)C1O (stereo not drawn) [Mupirocin],0.825,0.856,0.869,0.811
Cc1ncc(COP(=O)(O)O)c(C=O)c1O.O [Pyridoxal 5-phosphate monohydrate],1.02,0.623,1.01,0.536
N=C(N)NCCN1CCCCCCC1.N=C(N)NCCN1CCCCCCC1.O=S(=O)(O)O [Guanethidine Sulfate],0.743,0.806,0.769,0.853
CS(=O)(=O)c1ccc(C(O)C(CF)NC(=O)C(Cl)Cl)cc1 (stereo not drawn) [Florfenicol],0.553,0.855,0.376,0.617
CO/N=C(\C(=O)NC1C(=O)N2C(C(=O)O)=C(CSc3nnnn3C)CSC12)c1csc(N)n1.CO/N=C(\C(=O)NC1C(=O)N2C(C(=O)O)=C(CSc3nnnn3C)CSC12)c1csc(N)n1.Cl (stereo not drawn) [Cefmenoxime hydrochloride],0.839,0.907,0.877,0.773
CS(=O)(=O)CCNCc1ccc(-c2ccc3ncnc(Nc4ccc(OCc5cccc(F)c5)c(Cl)c4)c3c2)o1 [Lapatinib],0.743,0.879,0.811,1.82
CC(C)CC(NC(=O)C(Cc1ccc2ccccc2c1)NC(=O)C(Cc1ccc(O)cc1)NC(=O)C(CO)NC(=O)C(Cc1c[nH]c2ccccc12)NC(=O)C(Cc1c[nH]cn1)NC(=O)C1CCC(=O)N1)C(=O)NC(CCCNC(=N)N)C(=O)N1CCCC1C(=O)NCC(N)=O (stereo not drawn) [Nafarelin Acetate],0.809,0.69,0.809,0.6
COc1cccc(CCc2ccccc2OCC(CN(C)C)OC(=O)CCC(=O)O)c1.Cl (stereo not drawn) [Sarpogrelate hydrochloride],0.521,0.745,0.522,0.624
Nc1ccn(C2CCC(CO)O2)c(=O)n1 (stereo not drawn) [Zalcitabine],0.937,0.88,1.14,0.728
CCCCc1oc2ccccc2c1C(=O)c1cc(I)c(OCCN(CC)CC)c(I)c1.Cl [Amiodarone HCl],0.644,1.03,0.784,1.71
CN1CCN(C2=Nc3cc(Cl)ccc3Nc3ccccc32)CC1 [Clozapine],0.782,1.28,1.11,1.87
O=C(c1ccccc1)c1ccc2n1CCC2C(=O)O (stereo not drawn) [Ketorolac],1.01,0.69,0.991,0.571
CN1CCN(CCCN2c3ccccc3Sc3ccc(Cl)cc32)CC1.O=C(O)/C=C\C(=O)O.O=C(O)/C=C\C(=O)O [Prochlorperazine dimaleate salt],0.516,1.31,0.339,1.13
CCC(C)(C)c1ccc(CC(C)CN2CC(C)OC(C)C2)cc1.Cl (stereo not drawn) [Amorolfine HCl],0.771,0.788,0.7,0.574
NC(=O)NC1NC(=O)NC1=O (stereo not drawn) [Allantoin],0.745,0.997,0.766,0.774

Structure (SMILES),NF-kB reporter (A549-Dual [1]; irradiation: 8 Gy/4 fr),NF-kB reporter (A549-Dual [1]; irradiation: none),ISRE reporter (A549-Dual [2]; irradiation: 8 Gy/4 fr),ISRE reporter (A549-Dual [2]; irradiation: none)
OCC1OC(OCCc2ccc(O)cc2)C(O)C(O)C1O (stereo not drawn) [Salidroside],1.21,0.748,1.06,0.57
COC(=O)Nc1nc2ccc(C(=O)c3ccc(F)cc3)cc2[nH]1 [Flubendazole],0.783,1.66,0.244,1.38
"CC(O)CO (stereo not drawn) [1,2-Propanediol]",0.794,0.775,0.954,0.616
N[C@H](Cc1ccccc1)C(=O)O [D-Phenylalanine],1.47,0.969,1.52,1.04
O=C([O-])C1=C(CSc2nnnn2CS(=O)(=O)[O-])CSC2C(NC(=O)C(O)c3ccccc3)C(=O)N12.[Na+].[Na+] (stereo not drawn) [Cefonicid sodium],0.773,0.9,0.845,0.767
CCOc1nc2cccc(C(=O)OC(C)OC(=O)OC3CCCCC3)c2n1Cc1ccc(-c2ccccc2-c2nnn[nH]2)cc1 (stereo not drawn) [Candesartan Cilexetil],0.489,0.509,0.574,0.75
Nc1nc(/C(=C/CC(=O)O)C(=O)NC2C(=O)N3C(C(=O)O)=CCSC23)cs1.O.O (stereo not drawn) [Ceftibuten dihydrate],1.26,1.04,1.05,0.908
CC(=O)NCCCS(=O)(=O)[O-] [Acamprosate Calcium],0.625,1.23,0.478,0.664
CC(C)(C)C1CCC(CC2=C(O)C(=O)c3ccccc3C2=O)CC1 (stereo not drawn) [Buparvaquone],1.9,2.43,0.208,0.682
CC(C)(Sc1cc(C(C)(C)C)c(O)c(C(C)(C)C)c1)Sc1cc(C(C)(C)C)c(O)c(C(C)(C)C)c1 [Probucol],0.663,0.963,0.727,0.827
Cc1cc(O)cc(C)c1Cl [Chloroxylenol],0.942,1.26,0.813,1.19
O=C(O)C(=O)c1ccccc1 [Phenylglyoxylic acid],1.09,0.717,0.948,0.525
C=CC(C)(O)CCC1C(C)(O)CCC2C(C)(C)CCCC21C (stereo not drawn) [Sclareol],1.05,0.943,1.27,1.29
CN1CCN(CCCN2c3ccccc3Sc3ccc(C(F)(F)F)cc32)CC1.Cl.Cl [Trifluoperazine 2HCl],0.764,1.07,0.807,1.61
Cn1cc[nH]c1=S [Methimazole],0.688,0.799,0.549,0.702
c1ccc(-c2ccc(C(c3ccccc3)n3ccnc3)cc2)cc1 (stereo not drawn) [Bifonazole],0.469,0.804,0.33,0.473
O=C(O)[C@@H]1C[C@@H](O)CN1 [L-Hydroxyproline],1.36,0.673,1.41,0.645
CCCC1OC2CC3C4CCC5=CC(=O)C=CC5(C)C4C(O)CC3(C)C2(C(=O)CO)O1 (stereo not drawn) [Budesonide],0.401,0.708,0.069,0.24
CCN(CC)CCNC(=O)c1ccc(N)cc1.Cl [Procainamide HCl],0.86,0.961,0.857,0.836
CC1OC(OCC2OC(Oc3c(-c4ccc(O)c(O)c4)oc4cc(O)cc(O)c4c3=O)C(O)C(O)C2O)C(O)C(O)C1O (stereo not drawn) [Rutin hydrate],0.743,0.692,0.771,0.622
COc1cc(O)c(C(=O)Nc2nc(C(=O)NCCN(C(C)C)C(C)C)cs2)cc1OC [Acotiamide],1.1,0.779,1.57,1.07
COc1ccccc1OCCNCC(O)COc1cccc2[nH]c3ccccc3c12.O=P(O)(O)O (stereo not drawn) [Carvedilol Phosphate],0.913,0.818,1.12,1.21
O=C[C@H](O)[C@H](O)[C@H](O)CO [D-Ribose],0.594,0.572,0.672,0.534
CNC1CCc2[nH]c3ccc(C(N)=O)cc3c2C1.O=C(O)CCC(=O)O (stereo not drawn) [Frovatriptan Succinate],0.839,1.41,0.671,0.735
CCN(CC)CC(=O)Oc1ccc(NC(C)=O)cc1.Cl [Propacetamol hydrochloride],0.458,0.99,0.502,0.799
CN1C2CCC1CC(OC(=O)c1c[nH]c3ccccc13)C2 (stereo not drawn) [Tropisetron],0.868,1.32,0.735,0.698
